Molecules are shown by their SMILES. The campaign covered roughly 310,000 compounds. About 14,000 (4.5%) showed an effect of 50% or more. The effect is printed as a negative number. The list shows a part of the results.
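Further: peak tail current of the secondary pulse compared with the same well before compound.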

human ether-à-go-go-related gene (hERG) potassium channel, sequence (Q12809 whole entry, looked up): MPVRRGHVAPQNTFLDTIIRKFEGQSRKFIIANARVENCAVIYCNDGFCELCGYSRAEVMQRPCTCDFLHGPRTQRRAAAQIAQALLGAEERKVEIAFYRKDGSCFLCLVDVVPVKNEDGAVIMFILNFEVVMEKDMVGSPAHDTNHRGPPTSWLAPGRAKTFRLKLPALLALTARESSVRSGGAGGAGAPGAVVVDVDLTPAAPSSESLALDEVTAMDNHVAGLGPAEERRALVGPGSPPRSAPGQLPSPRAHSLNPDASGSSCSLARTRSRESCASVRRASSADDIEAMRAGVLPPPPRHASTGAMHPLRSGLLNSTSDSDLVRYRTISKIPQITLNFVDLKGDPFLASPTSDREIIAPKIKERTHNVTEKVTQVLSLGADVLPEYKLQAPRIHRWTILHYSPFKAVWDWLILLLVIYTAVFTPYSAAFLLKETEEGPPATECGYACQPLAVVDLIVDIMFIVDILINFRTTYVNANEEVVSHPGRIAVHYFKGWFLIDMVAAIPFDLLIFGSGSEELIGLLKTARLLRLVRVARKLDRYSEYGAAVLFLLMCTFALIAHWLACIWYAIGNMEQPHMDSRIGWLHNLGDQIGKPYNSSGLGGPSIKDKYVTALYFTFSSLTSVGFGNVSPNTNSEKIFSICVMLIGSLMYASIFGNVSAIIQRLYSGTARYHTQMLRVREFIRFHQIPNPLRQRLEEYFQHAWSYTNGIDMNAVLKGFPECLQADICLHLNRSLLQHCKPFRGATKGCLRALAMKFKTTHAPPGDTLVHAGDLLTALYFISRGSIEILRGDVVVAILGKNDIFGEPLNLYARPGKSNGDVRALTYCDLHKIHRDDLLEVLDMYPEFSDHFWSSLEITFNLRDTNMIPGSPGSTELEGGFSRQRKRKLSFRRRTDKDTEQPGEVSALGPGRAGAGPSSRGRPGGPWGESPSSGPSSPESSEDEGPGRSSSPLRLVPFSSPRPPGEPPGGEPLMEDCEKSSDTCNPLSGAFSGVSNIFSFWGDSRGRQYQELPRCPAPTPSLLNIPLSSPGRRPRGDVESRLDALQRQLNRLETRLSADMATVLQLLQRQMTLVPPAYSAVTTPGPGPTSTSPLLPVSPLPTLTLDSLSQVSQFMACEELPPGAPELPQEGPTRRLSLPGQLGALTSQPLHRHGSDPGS

The experiment addresses human ether-à-go-go-related gene (hERG) potassium channel (human, UniProt Q12809). The experiment is described as follows: primary screen, population patch clamp on CHO cells stably expressing hERG.
`CCOC(=O)Cc1c(C)nc2c(-c3ccccc3)c[nH]n2c1=O`: the “hERG current change (%, negative = inhibition) at 10uM” value is reported as 2.48%. `Cn1c(SCC(=O)N/N=C/C=C\c2ccccc2[N+](=O)[O-])nc2ccccc21`: the “hERG current change (%, negative = inhibition) at 10uM” value stood at 10.4%. As for `CC(C)n1nc(C(=O)Oc2cccc(Cl)c2Cl)c2ccccc2c1=O`, the figure is -11.3%; as for `Cn1ccc(C(=O)NC(=S)Nc2ccc([N+](=O)[O-])cc2O)n1`, 8.42%; as for `Cc1nnc(SCC(=O)NC2CCCCC2)n1C1CCCCC1`, 5.34%. As for `Cc1[nH]c2ccc(C(=O)NC3CCC(C)CC3)cc2c1C` (centres unmarked), the figure is 4.27%; as for `Nc1cccnc1S(=O)(=O)c1cccc(C(F)(F)F)c1`, 5.59%.

For the molecule `CCOc1ccccc1-n1c(SCC(=O)Nc2ccccc2C(=O)O)nc2ccccc2c1=O`, the “hERG current change (%, negative = inhibition) at 10uM” value is 8.39%. To `Cc1ccc(S(=O)(=O)NC2=NCN(Cc3cccnc3)CN2)cc1` belongs 20.3%. In the case of `Cc1ccc[n+](-c2[nH]c(=O)sc2/C=N/N=C(\[O-])c2cccnc2)c1`, the “hERG current change (%, negative = inhibition) at 10uM” value is 7%. To `CCOC(=O)c1cc(C#N)c(N2CCOCC2)nc1-c1ccccc1` belongs -32.7%; to `CCOc1ncccc1C(=O)OCc1nnc(-c2ccccc2)o1`, -27.6%. To `COC(=O)c1ccc(NC(=O)CCS(=O)(=O)c2ccc(C)cc2)cc1` belongs 8.44%; to `CC(C)Sc1nc2c(c(=O)n(C)c(=O)n2C)n1C`, 16.1%; to `CCNc1nc(NCC)n2c(SCC(=O)Nc3ccccc3Cl)nnc2n1`, 11%. For `O=C(CN1C(=O)c2ccccc2S1(=O)=O)NCCSCc1c(F)cccc1Cl`, the “hERG current change (%, negative = inhibition) at 10uM” value is recorded as -29.7%. Turning to `CCc1ccc2oc(C(=O)NCc3ccncc3)c(C)c2c1`, the “hERG current change (%, negative = inhibition) at 10uM” value is given as -20.3%.

For `CC1CCCN(S(=O)(=O)c2ccc(NC(=O)c3cccc(-n4cnnn4)c3)cc2)C1` (centres unmarked), the “hERG current change (%, negative = inhibition) at 10uM” value is -40.2%. As for `Cc1[nH]n(-c2ccc([N+](=O)[O-])cc2)c(=O)c1C=NCCN1CCN(C(=O)c2ccccc2F)CC1`, the figure is -71.2%; as for `Cc1cccc(C)c1OCC(=O)N=Nc1c(O)[nH]c2ccc(Br)cc12`, -5.96%; as for `Cc1ccc(NS(=O)(=O)c2cccc(C(=O)O)c2)cc1S(=O)(=O)N1CCOCC1`, -8.81%. `CCOC(=O)C1=C(Nc2ccc(OC)cc2)OCC1=O`: the “hERG current change (%, negative = inhibition) at 10uM” value was 16.5%. As for `O=C(Cc1cccs1)NC1(C(=O)NC2CCCC2)CCCCC1`, the figure is -3.91%.

As for `COc1ccc(-c2c(C(C)=O)c(C)nc3sc4c(=O)n(-c5ccc(C)cc5)nnc4c23)cc1`, the “hERG current change (%, negative = inhibition) at 10uM” value stood at 5.77%.

Turning to `Cc1ccc2c(c1)N(CC(=O)OCC(=O)NCc1ccccc1)C(=O)CO2`, the “hERG current change (%, negative = inhibition) at 10uM” value is -4.08%.

`CC(C)(C)c1ccc(C(=O)Nc2ccccc2Cl)cc1`: the “hERG current change (%, negative = inhibition) at 10uM” value is 31.2%. Turning to `CS(=O)(=O)N1CCN(C(=O)c2c(F)cccc2F)CC1`, the “hERG current change (%, negative = inhibition) at 10uM” value is 0.936%.

With `CN(C)CCn1c2c(c(SCC(=O)NCc3ccccc3)nc1=O)CCC2`, the “hERG current change (%, negative = inhibition) at 10uM” value is listed as -14.9%. To `Cc1nc2cc(NC(=O)N3c4ccccc4CC3C)ccc2n1C` (centres unmarked) belongs -8.73%; to `O=C(Nc1ccccc1)Nc1scc2c1c(=O)oc1ccccc12`, 2.68%; to `N/C(=N\OC(=O)c1ccc(OCC(F)(F)F)nc1)c1ccc(Cl)cc1`, 19.5%. With `CN(C)S(=O)(=O)NCC1CCCN(Cc2cc3ccccc3s2)C1` (centres unmarked), the “hERG current change (%, negative = inhibition) at 10uM” value is -6.37%.

For the molecule `COc1ccccc1CNC(=O)CCC(=O)Nc1nnc(C(C)C)s1`, the “hERG current change (%, negative = inhibition) at 10uM” value worked out at 3.13%. As for `Cc1nc(-c2ccccc2)sc1-c1nc(-c2ccccc2)ncc1S(=O)(=O)c1ccccc1`, the figure is 6.59%; as for `CC1CCN(C(=O)/C(=C/c2ccccc2Cl)c2ccccc2)CC1`, -11.8%; as for `COc1ccc(C)cc1NC(=O)CCN1CCN(c2ccccc2F)CC1.Cl`, -19.9%. To `Cc1c(Cc2ccc3c(c2)OCO3)sc(NC(=O)c2ccc3ccccc3c2)c1C(N)=O` belongs -4.06%. To `COc1ccc(C(=O)NC(=S)Nc2ccc3c4c(cccc24)CC3)cc1OC` belongs 22.3%; to `CCn1ncc(-c2ccnc3cc(C(=O)O)nn23)c1C`, 12.6%; to `Cc1[nH]c2ccc(-c3n[nH]c(=S)n3-c3ccccc3)cc2c1C`, -3.58%. Regarding `Cc1cc(Cl)ccc1NC(=S)N(CCCN1CCOCC1)Cc1cccs1`, the “hERG current change (%, negative = inhibition) at 10uM” value is reported as -32.2%. Consider `CCC(=O)Oc1ccc(-c2cnc3ccccc3n2)cc1`, for which the “hERG current change (%, negative = inhibition) at 10uM” value is on record as 13.5%. Consider `CCN(CC)C(=O)c1c(-c2ccccc2)oc2ccc(O)cc12`, for which the “hERG current change (%, negative = inhibition) at 10uM” value came out at 9.39%. In the case of `O=C1C2C3C=CC([C@@H]2C(=O)N1C1CCCCC1)[C@H]1C(=O)N(C2CCCCC2)C(=O)C31` (some centres unmarked), the “hERG current change (%, negative = inhibition) at 10uM” value is reported as 0.712%. As for `Cc1cc(NC(=O)Cn2nc(-c3ccccc3F)ccc2=O)ccc1-n1cnnn1`, the figure is -8.95%. As for `Cc1ccc(C(=O)NC(C)(COc2nonc2C)COc2nonc2C)cc1`, the “hERG current change (%, negative = inhibition) at 10uM” value is -40%. `CCC(c1nnnn1CCOC)N1CCN(Cc2ccccc2)CC1.Cl` (centres unmarked): the “hERG current change (%, negative = inhibition) at 10uM” value is reported as -2.59%.

On to `COc1cc(S(=O)(=O)NCC2CCCO2)ccc1Br` (centres unmarked), for which the “hERG current change (%, negative = inhibition) at 10uM” value is reported as -15.8%. Regarding `N#CCCCSc1nnc(Cc2ccc3c(c2)OCO3)o1`, the “hERG current change (%, negative = inhibition) at 10uM” value is 6.99%.

Regarding `CCCCOc1ccc(C(=O)NCCc2ccccc2)cc1`, the “hERG current change (%, negative = inhibition) at 10uM” value is 5.09%.

For `CN(C)CCCN(C(=O)c1ccc(S(=O)(=O)N2CCCCCC2)cc1)c1nc2ccc(F)cc2s1.Cl`, the “hERG current change (%, negative = inhibition) at 10uM” value was -73.1%. As for `Cc1nc(SCC(=O)Nc2nc3ccccc3s2)n[nH]1`, the figure is 9.48%; as for `CC1CC(CN)CC(CO)C1` (centres unmarked), 17.6%.

As to `COc1ccc(N2C(=S)NC3c4cc(Cl)ccc4OC2(C)C3C(=O)N(C)C)cc1` (centres unmarked), the “hERG current change (%, negative = inhibition) at 10uM” value is on record as 24.6%.

Regarding `CCC(=O)N1CCN(c2ccc(Cl)cc2NC(=O)Cc2ccc(Cl)cc2)CC1`, the “hERG current change (%, negative = inhibition) at 10uM” value is recorded as -54.5%. On to `O=C(O)COc1ccc2c3c(c(=O)oc2c1)CCC3`, for which the “hERG current change (%, negative = inhibition) at 10uM” value turned out to be 5.59%.

The values above are taken from PMC4336329 (PLoS ONE, 2015).
